According to US20250059278A1 (SICHUAN HUIYU PHARMACEUTICAL, published 2025):

B1: CD3-MSLN bispecific antibody B36 (bispecific antibody, human IgG1, lambda)
heavy: EVQLVESGGGLVQPGGSLRLSCAASGFTFNTYAMNWVRQAPGKGLEWVARIRSKYNNYATYYADSVKDRFTISRDDSKSSLYLQMNSLKTEDTAMYYCVRHSNFPNSYVSWFAYWGQGTLVTVSSASTKGPSVFPLAPSSKSTSGGTAALGCLVKDYFPEPVTVSWNSGALTSGVHTFPAVLQSSGLYSLSSVVTVPSSSLGTQTYICNVNHKPSNTKVDKKV[letters of human IgG1 Fc with changes omitted]GGGGSGGGGSEVQLVESGGGLVQAGESLRLSCAVSGNIGSIRHMGWHRQDPGKERELVATITTVGTTYYANFVKGRFTISRDNAKNTVYLQMNSLKPEDTGVYYCRATAHPTDYWGQGTQVTVSS
light: [letters of about 100 residues omitted][letters of about 100 residues omitted]
notes: [VH36]-[CH]-[L]-[3C6 VHH] with [VL-1]-[CL]
B2: CD3-MSLN bispecific antibody B37 (bispecific antibody, human IgG1, lambda)
heavy: EVQLVESGGGLVQPGGSLRLSCAASGFTFNTYAMNWVRQAPGKGLEWVARIRSKYNNYATYYADSVKDRFTISRDDSKSILYLQMNNLKTEDTAMYYCVRHANFSNSYVSWFAYWGQGTLVTVSSASTKGPSVFPLAPSSKSTSGGTAALGCLVKDYFPEPVTVSWNSGALTSGVHTFPAVLQSSGLYSLSSVVTVPSSSLGTQTYICNVNHKPSNTKVDKKV[letters of human IgG1 Fc with changes omitted]GGGGSGGGGSEVQLVESGGGLVQAGESLRLSCAVSGNIGSIRHMGWHRQDPGKERELVATITTVGTTYYANFVKGRFTISRDNAKNTVYLQMNSLKPEDTGVYYCRATAHPTDYWGQGTQVTVSS
light: [letters of about 100 residues omitted][letters of about 100 residues omitted]
notes: [VH37]-[CH]-[L]-[3C6 VHH] with [VL-1]-[CL]
B3: CD3-MSLN bispecific antibody B38 (bispecific antibody, human IgG1, lambda)
heavy: EVQLVESGGGLVQPGGSLRLSCAASGFTFNTYAMNWVRQAPGKGLEWVARIRSKYNNYATYYADSVKDRFTISRDDSKSSLYLQMNNLKTEDTAVYYCVRHGNFLNSYVSWFQYWGQGTLVTVSSASTKGPSVFPLAPSSKSTSGGTAALGCLVKDYFPEPVTVSWNSGALTSGVHTFPAVLQSSGLYSLSSVVTVPSSSLGTQTYICNVNHKPSNTKVDKKV[letters of human IgG1 Fc with changes omitted]GGGGSGGGGSEVQLVESGGGLVQAGESLRLSCAVSGNIGSIRHMGWHRQDPGKERELVATITTVGTTYYANFVKGRFTISRDNAKNTVYLQMNSLKPEDTGVYYCRATAHPTDYWGQGTQVTVSS
light: [letters of about 100 residues omitted][letters of about 100 residues omitted]
notes: [VH38]-[CH]-[L]-[3C6 VHH] with [VL-1]-[CL]
B4: CD3-MSLN bispecific antibody B39 (bispecific antibody, human IgG1, lambda)
heavy: EVQLVESGGGLVQPGGSLRLSCAASGFTFNTYAMNWVRQAPGKGLEWVARIRSKYNNYATYYADSVKDRFTISRDDSKSSLYLQMNNLKTEDTAMYYCVRHQNFGNSYVSWFQYWGQGTLVTVSSASTKGPSVFPLAPSSKSTSGGTAALGCLVKDYFPEPVTVSWNSGALTSGVHTFPAVLQSSGLYSLSSVVTVPSSSLGTQTYICNVNHKPSNTKVDKKV[letters of human IgG1 Fc with changes omitted]GGGGSGGGGSEVQLVESGGGLVQAGESLRLSCAVSGNIGSIRHMGWHRQDPGKERELVATITTVGTTYYANFVKGRFTISRDNAKNTVYLQMNSLKPEDTGVYYCRATAHPTDYWGQGTQVTVSS
light: [letters of about 100 residues omitted][letters of about 100 residues omitted]
notes: [VH39]-[CH]-[L]-[3C6 VHH] with [VL-1]-[CL]
B5: CD3-MSLN bispecific antibody B40 (bispecific antibody, human IgG1, lambda)
heavy: EVQLVESGGGLVQPGGSLRLSCAASGFTFNTYAMNWVRQAPGKGLEWVARIRSKYNNYATYYADSVKDRFTISRDDSKSSLYLQMNNLKTEDTAMYYCVRAGNFGNSYVSWFQYWGQGTLVTVSSASTKGPSVFPLAPSSKSTSGGTAALGCLVKDYFPEPVTVSWNSGALTSGVHTFPAVLQSSGLYSLSSVVTVPSSSLGTQTYICNVNHKPSNTKVDKKV[letters of human IgG1 Fc with changes omitted]GGGGSGGGGSEVQLVESGGGLVQAGESLRLSCAVSGNIGSIRHMGWHRQDPGKERELVATITTVGTTYYANFVKGRFTISRDNAKNTVYLQMNSLKPEDTGVYYCRATAHPTDYWGQGTQVTVSS
light: [letters of about 100 residues omitted][letters of about 100 residues omitted]
notes: [VH40]-[CH]-[L]-[3C6 VHH] with [VL-1]-[CL]
B6: CD3-MSLN bispecific antibody B41 (bispecific antibody, human IgG1, lambda)
heavy: EVQLVESGGGLVQPGGSLRLSCAASGFTFNTYAMNWVRQAPGKGLEWVARIRSKYNNYATYYADSVKGRFTISRDDSKSSLYLQMNNLKTEDTAMYYCVRHSNFQNSYVSWFAYWGQGTLVTVSSASTKGPSVFPLAPSSKSTSGGTAALGCLVKDYFPEPVTVSWNSGALTSGVHTFPAVLQSSGLYSLSSVVTVPSSSLGTQTYICNVNHKPSNTKVDKKV[letters of human IgG1 Fc with changes omitted]GGGGSGGGGSEVQLVESGGGLVQAGESLRLSCAVSGNIGSIRHMGWHRQDPGKERELVATITTVGTTYYANFVKGRFTISRDNAKNTVYLQMNSLKPEDTGVYYCRATAHPTDYWGQGTQVTVSS
light: [letters of about 100 residues omitted][letters of about 100 residues omitted]
notes: [VH41]-[CH]-[L]-[3C6 VHH] with [VL-1]-[CL]

What was measured:
[1] = biological target: T1, Human CD3εγ recombinant antigen (acrobiosystems, Cat. No. CDG-H52W5) (human, UniProt P07766 23-126; P09693 23-116); assay: SPR chip (Carterra), antibody captured, antigen in flow
T1 construct: Bought recombinant protein

[2] = biological target: T2, Monkey CD3 on cynomolgus HSC-F cells (cynomolgus monkey, UniProt Q95LI5 22-198; Q95LI7 23-181; Q95LI8 22-171); assay: flow cytometry on HSC-F cells
T2 construct: whole, on cells; also called Monkey CD3-expressing cynomolgus HSC-F cells; cynomolgus monkey CD3-expressing HSC-F cells
T2 sequence (Q95LI5 22-198, chain 1 of 3): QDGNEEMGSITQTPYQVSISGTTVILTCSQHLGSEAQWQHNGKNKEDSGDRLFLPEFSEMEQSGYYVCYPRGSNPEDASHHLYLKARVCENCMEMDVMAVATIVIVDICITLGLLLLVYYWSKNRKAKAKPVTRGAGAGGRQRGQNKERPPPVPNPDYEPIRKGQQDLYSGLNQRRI
T2 sequence (Q95LI7 23-181, chain 2 of 3, further chain): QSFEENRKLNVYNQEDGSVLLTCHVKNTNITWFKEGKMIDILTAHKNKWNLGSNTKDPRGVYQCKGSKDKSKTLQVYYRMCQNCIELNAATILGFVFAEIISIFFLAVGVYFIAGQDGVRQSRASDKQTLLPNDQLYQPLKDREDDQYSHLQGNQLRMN
T2 sequence (Q95LI8 22-171, chain 3 of 3, further chain): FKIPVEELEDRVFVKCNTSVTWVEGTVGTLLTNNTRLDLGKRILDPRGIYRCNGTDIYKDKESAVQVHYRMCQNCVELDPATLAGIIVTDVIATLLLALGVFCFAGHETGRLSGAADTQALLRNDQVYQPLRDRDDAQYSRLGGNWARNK

[3] = biological target: T3, Human CD3 on Jurkat cells (human, UniProt P07766; P09693; P04234); assay: flow cytometry on Jurkat cells
T3 construct: whole, on cells; also called Human CD3-expressing Jurkat cells; Jurkat (naturally expressing human CD3)

[4] = biological target: T3, Human CD3 on Jurkat cells; assay: cell-based or functional assay
T3 sequence (P07766 23-207, chain 1 of 3): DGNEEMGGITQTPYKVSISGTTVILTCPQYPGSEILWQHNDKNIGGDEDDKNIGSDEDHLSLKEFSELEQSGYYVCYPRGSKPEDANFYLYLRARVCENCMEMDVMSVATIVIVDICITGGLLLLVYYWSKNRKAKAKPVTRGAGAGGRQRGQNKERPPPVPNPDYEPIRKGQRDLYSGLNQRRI
T3 sequence (P09693 23-182, chain 2 of 3, further chain): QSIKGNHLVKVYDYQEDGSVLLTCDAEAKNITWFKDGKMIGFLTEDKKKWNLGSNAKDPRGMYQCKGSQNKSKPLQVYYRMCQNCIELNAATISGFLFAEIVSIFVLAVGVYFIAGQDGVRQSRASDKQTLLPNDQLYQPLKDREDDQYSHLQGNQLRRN
T3 sequence (P04234 22-171, chain 3 of 3, further chain): as the sequence (Q95LI8 22-171, chain 3 of 3, further chain) above, with V5I, K15N, V20I, T32S, N33D, N34I, A64T, N74S, L83V, R141H counted along it

| Kd [1] | koff [1] | kon [1] | EC50 [2] | EC50 [3] | EC50 (nM), activation of Jurkat-TIGIT-luc cells with MC38/MSLN tumor cells [4] | Binder |
| --- | --- | --- | --- | --- | --- | --- |
| 1.1 nM | 0.002 s⁻¹ | 1.7e+06 M⁻¹ s⁻¹ | 0.246 nM | 0.185 nM |  | B1 |
| 5.5 nM | 0.0046 s⁻¹ | 830000 M⁻¹ s⁻¹ | 0.216 nM | 0.226 nM | 0.037 nM | B2 |
| 1.5 nM | 0.0021 s⁻¹ | 1.4e+06 M⁻¹ s⁻¹ | 0.257 nM | 0.165 nM |  | B3 |
| 12 nM | 0.0052 s⁻¹ | 440000 M⁻¹ s⁻¹ | 0.652 nM | 0.582 nM |  | B4 |
| 1.5 nM | 0.00065 s⁻¹ | 430000 M⁻¹ s⁻¹ | 0.639 nM | 3.77 nM |  | B5 |
| 1.4 nM | 0.0025 s⁻¹ | 1.8e+06 M⁻¹ s⁻¹ | 0.218 nM | 0.816 nM |  | B6 |
